The campaign covered roughly 340,000 compounds. About 6,900 (2%) were called active. No stated cut-off is given here; in the data, active means inhibition above about 30%; inactive means below that, where a call was filed. The list shows a part of the results, in another mix than the full data. Where no call is shown, the source filed none.

This test has as its target D(2) dopamine receptor (Homo sapiens) (UniProt P14416). Description: HTS Assay for Allosteric Antagonists of the Human D2 Dopamine Receptor: Primary Screen for Antagonists. Further: 0% is about no effect. As to conditions: HEK293 TREx D2 cells, calcium flux, dopamine EC80; at 10 µM; stronger effect = higher value. An outline of the steps: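 Tetracycline-induced HEK293 TREx cells expressing D2 receptor forced-coupled to calcium signalling, loaded with no-wash calcium dye. Compounds added and calcium flux read 180 s, then dopamine added at EC80 and read a further 180 s.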
Chain of UniProt P14416 (P14416 whole entry, looked up): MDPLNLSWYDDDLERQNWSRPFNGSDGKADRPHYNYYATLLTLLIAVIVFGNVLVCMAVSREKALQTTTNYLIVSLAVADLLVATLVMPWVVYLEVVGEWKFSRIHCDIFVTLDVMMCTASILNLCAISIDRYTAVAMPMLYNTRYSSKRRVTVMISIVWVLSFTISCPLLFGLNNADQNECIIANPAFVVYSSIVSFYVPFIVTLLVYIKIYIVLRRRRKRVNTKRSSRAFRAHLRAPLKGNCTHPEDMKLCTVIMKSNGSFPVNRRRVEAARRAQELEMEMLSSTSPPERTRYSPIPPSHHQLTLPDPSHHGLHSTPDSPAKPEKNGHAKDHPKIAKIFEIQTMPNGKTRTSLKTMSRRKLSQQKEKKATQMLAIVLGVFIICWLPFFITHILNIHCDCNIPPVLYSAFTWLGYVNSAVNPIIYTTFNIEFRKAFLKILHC
On to `CCCCN(C)CCCNC(=O)Cn1ncc2c3ccccc3n(Cc3cccc(Cl)c3)c2c1=O`, for which the inhibition turned out to be 1.24%. Next, `COc1ccc(NCc2cc3cc4c(cc3n(CC(=O)Nc3cccc(F)c3)c2=O)OCO4)cc1`: 3.14%; `O=C(Cn1c(=O)n(-c2ccccc2)c(=O)c2ccc(C(=O)NCc3ccc4c(c3)OCO4)cc21)Nc1ccc(F)cc1`: 3.06%. Consider `Clc1ccccc1N1CCN(Cc2nnc(-c3ccccc3)o2)CC1`, for which the inhibition worked out at 13.6%. Then `CCc1cccc(NC(=O)Cn2c(=O)n(-c3ccccc3C)c(=O)c3c2c2cc(C)ccc2n3C)c1`, with -9.25%. Take `COc1cc(OC)c(NC(=O)Cn2c(=O)c(C(F)(F)F)nc3ccccc32)cc1Cl`: the inhibition was determined as 1.05%. Regarding `Cc1ccc(Cl)cc1-n1c(CCC(=O)O)ccc1-c1cccs1`, the inhibition is 0.0749%. Next, `Cc1ccc(-n2nc(C(=O)N3CCN(c4ccc(F)cc4)CC3)c(=O)n(C)c2=O)cc1`: 21.8%; `OC(COc1cccc2ccccc12)CN1CCN(c2ccccn2)CC1` (stereo not given): active: 75.1%. Next, `COc1ccc2nc(NC(=O)c3nc(S(=O)(=O)Cc4ccccc4F)ncc3Cl)sc2c1`: -2.59%. Regarding `Cn1cnc(S(=O)(=O)N2CCC(C(=O)Nc3ccc(F)cc3F)CC2)c1`, the inhibition was -21.5%. Then `CCOCCc1nnc(NC(=O)C(=O)c2cc(C)n(-c3cccc(C)c3)c2C)s1`, with 16.2%; and `Cc1ccc(-c2noc(CNC(=O)COc3cc(C)c(Br)c(C)c3)n2)cc1`, with -19.7%; and `CCN(CC)C(=O)C1=C(C)NC(=S)NC1c1cccs1` (stereo not given), with active: 30.7%. Then `O=C(NC1CCCCC1)c1ccc2c(c1)N(Cc1cccc(F)c1)C(=O)c1ccccc1S2`, with 11.9%; and `O=C(NC1CCCCC1)c1ccc2c(c1)sc1nc(-c3ccc(F)cc3)cn12`, with 8.62%; and `CN(C1CCCCC1)S(=O)(=O)c1cccc2nsnc12`, with active: 31.6%. Next, `Cc1ccc(Nc2cc(C)nc(-n3nc(C)cc3C)n2)cc1`: 16%. `O=C(Nc1ccc(OC(F)(F)F)cc1)C1CCN(S(=O)(=O)c2ccc3[nH]c(=O)ccc3c2)CC1`: the inhibition was -2.8%. On to `Cc1ccc(NC(=O)CSc2nc3ccc(Br)cc3[nH]2)c(C)c1`, for which the inhibition was found to be 20%.

Take `Cc1ccc(N2CC(C(=O)NCCS(=O)(=O)N3CCN(c4ccccc4F)CC3)CC2=O)cc1` (stereo not given): the inhibition was -10.9%.

In the case of `CC1CCN(C(=O)CSc2c3c(nc4ccc(Cl)cc24)CCCC3)CC1`, the inhibition is -0.455%.

Take `CC1=C(c2ccc(C(C)C)cc2)S(=O)(=O)NC1=NCc1ccccc1C`: the inhibition was found to be 5.53%. For `Cc1cccc(NC(=O)CSc2nc3ccccc3nc2N2CCC(C)CC2)c1`, the inhibition is 11%. Next, `CCOc1ccc(N(Cc2ccccc2)C(=O)c2nc(SCC)ncc2Cl)cc1`: -7.32%; `Cc1nc2c3ccccc3nc(NNC(=O)CCC(=O)N3CCN(c4cccc(Cl)c4)CC3)n2n1`: 2.45%; `O=C(COc1ccc(F)cc1)Nc1nnc(S(=O)(=O)N2CCc3ccccc32)s1`: -1.32%. In the case of `COc1ccc(S(=O)(=O)N(CC(=O)Nc2ccc(F)c(Cl)c2)c2ccc(C)cc2)cc1OC`, the inhibition is -14.6%. Then `Cc1ccc(NC(=O)Cn2c(=O)n(CC3CCC(C(=O)NC(C)C)CC3)c(=O)c3sccc32)cc1` (stereo not given), with -1.22%; and `COc1ccc(-c2nc(C)c(CCNC(=O)C(=O)Nc3ccccc3F)s2)cc1`, with 12.9%; and `COc1ccccc1-n1nc(-c2ccccc2)c2cnc3c(F)cc(F)cc3c21`, with 24.6%. As for `COc1ccc(C(CNC(=O)COc2cc(C)cc(C)c2)N2CCCCC2)cc1` (stereo not given), the inhibition was -20.8%. For the molecule `COc1ccc(CCN2CCC(CNC(=O)c3cnn(-c4ccc(C)cc4)c3C3CCN(C(=O)OC(C)(C)C)CC3)CC2)cc1`, the inhibition came to 7.98%. With `COc1cc(C(=O)N2CCN(CCc3ccncc3)CC2)cc(OC)c1OC`, the inhibition worked out at 10.4%.

Turning to `COc1cccc(-n2c(=O)c3c(C)c(C(=O)N(C)C)sc3n(Cc3cccc(C)c3)c2=O)c1`, the inhibition came out at 3.71%. Next, `Cc1cccc(N(C)S(=O)(=O)c2ccc(-c3cc(C)no3)s2)c1`: -19.8%; `CCc1sc(Nc2cccc(C)c2)nc1-c1cc2cccc(OC)c2oc1=O`: -13.9%.

For the molecule `CC(=O)N1CCc2c(sc3c2c(=O)n(-c2ccc(F)cc2)c(=O)n3Cc2cc(C)ccc2C)C1`, the inhibition was -6.33%. Next, `Cc1ccc(S(=O)(=O)N2CCc3cc(C(=O)N(C)Cc4ccccc4)ccc32)cc1`: 26%; `COc1ccc(-c2noc(-c3ccc(N4CCN(C)CC4)c([N+](=O)[O-])c3)n2)cc1`: 6.68%. Next, `COc1ccc(S(=O)(=O)c2c(O)c(C)cc(NS(=O)(=O)c3ccc(Cl)cc3)c2C(C)C)cc1`: 10%; `COc1ccc(C2CC(=O)N(Cc3ccccc3C)c3c2c(C)nn3-c2nc(C)cc(C)n2)c(OC)c1` (stereo not given): 12%. Then `COc1ccc(NC(=O)CSC2=Nc3ccccc3C3=NC(CC(=O)NCc4ccccc4OC)C(=O)N23)cc1Cl` (stereo not given), with -6.67%; and `Cc1ccccc1-n1c(SCC(=O)Nc2ccc(Cl)cc2Cl)nc(O)cc1=O`, with 16.2%; and `CC(C)(C)c1ccc(-c2nc(SCCOc3ccc(Cl)cc3)n3[nH]c(=O)cc3n2)cc1`, with -1.76%. `O=C(CSc1ncc2c(n1)-c1cc(Cl)ccc1N(Cc1ccccc1)S2(=O)=O)Nc1ccc(F)cc1F`: the inhibition came out at 0.176%. Take `O=C(CCSCc1cccc(Cl)c1)NCc1ccccc1Cl`: the inhibition was -5.67%. Then `O=c1c(N2CCN(c3ccccc3)CC2)csc2ccc(Cl)cc12`, with 3.55%; and `CC(C)Oc1ccc(C(=O)N2CCN(c3nc4c(F)cc(F)cc4s3)CC2)cc1`, with -9.59%; and `CCN1c2ccccc2-n2cccc2C12CCN(C(=O)Nc1ccccc1Br)CC2`, with -8.66%. Then `CC1CCCN(c2ncnc3c2cnn3-c2ccc(F)cc2)C1` (stereo not given), with -6.08%; and `CCCCn1cc(S(=O)(=O)c2ccccc2)c(=O)c2cc(F)c(N3CCN(CCC)CC3)cc21`, with 0.621%. For `CCOCCn1ccc2c(OCC(=O)NCc3ccc(F)cc3)cccc2c1=O`, the inhibition is 4.11%. Next, `Cc1cc(C)cc(NC(=O)N2CCC(C(N)=O)(N3CCCCC3)CC2)c1`: -4.4%; `COc1ccc(N(C)C(=O)c2nn(-c3ccc(C)cc3)c(=O)n(C)c2=O)c(OC)c1`: -15.3%. Regarding `CCOC(=O)N1CCC(NC(=O)c2cnn(-c3ccc(F)cc3)c2-n2cccc2)CC1`, the inhibition is -8.03%. In the case of `COc1ccc(N2CC(NC(=O)C(=O)c3c[nH]c4ccccc34)CC2=O)cc1` (stereo not given), the inhibition was 3.9%.

Take `CCN(CC)c1cc(C)c2cc(NC(=O)/C=C/c3ccccc3Cl)ccc2n1`: the inhibition is -3.49%. With `COc1ccc(CNC(=O)CC(C)n2nc(C)cc2C)cc1` (stereo not given), the inhibition was determined as 3.58%. In the case of `Cc1ccc(-c2nn(-c3ccc(F)cc3F)c3c2cnc2ccc(F)cc23)cc1`, the inhibition is -26.8%.

Usually inhibition stands for the relative decrease from the control value, in per cent.

Source of the values: PubChem BioAssay AID485344 (National Center for Advancing Translational Sciences (NCATS), 2010).
